Test results reported in PubChem BioAssay AID1454 (National Center for Advancing Translational Sciences (NCATS), 2008).
Hit rate of the full screen: of about 130,000 compounds, about 550 (0.42%) were called active. The shares of active, inactive and inconclusive entries below differ from those in the screen. Calls come from the whole dose curve; as a rule, active = well fitted inhibition curve with a large enough effect; inconclusive = small, poorly fitted or top-dose-only effect, or effect the other way; inactive = flat fitted curve, though single readings scatter. Potencies of inconclusive entries are left out as doubtful fits.

Test: qHTS Assay for Inhibitors of the ERK Signaling Pathway using a Homogeneous Screening Assay; Stimulation with EGF; note: nearly all actives have a fitted effect of over 55% in size
Conditions: HEK293-V1b, EGF-stimulated phospho-ERK AlphaScreen
Summary of the method: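 Cell line HEK293 (stable V1b), low serum overnight. Pretreatment: compound 30 min, 37C. EGF 25 nM, 5 min. Detection: SureFire AlphaScreen, 5 h RT. AC50 via standard Hill equation.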
Potency is the fitted concentration of half-maximal effect; tags give direction and shape of the fitted curve.

SMILES	Potency
O=C(O)c1cc(O)c2c(c1)C(=O)c1cc(O)cc(O)c1C2=O	inconclusive [inhibitor, partial curve]
Cn1c(SCc2cccc([N+](=O)[O-])c2)nc2c(c1=O)SCC2	inconclusive [inhibitor, single point]
CC(C)CC1NC(=O)C(CCCN)NC(=O)C(C(C)C)NC(=O)C2CCCN2C(=O)C(Cc2ccccc2)NC(=O)C(CC(C)C)NC(=O)C(CCCN)NC(=O)C(C(C)C)NC(=O)C2CCCN2C(=O)C(Cc2ccccc2)NC1=O (stereo unspecified)	active: 3.55 µM
CCn1cc(C(=O)OCC(=O)c2cc(C)n(-c3ccccc3)c2C)c(=O)c2ccc(C)nc21	inconclusive [inhibitor, single point]
O=[N+]([O-])c1ccc(/C=C/C2=NN(c3ccccc3)C(c3ccco3)C2)o1 (stereo unspecified)	inconclusive [inhibitor, partial curve]
O=[N+]([O-])c1cc(C(F)(F)F)ccc1NC1CCN(Cc2ccccc2)CC1	inconclusive [inhibitor, single point]
CN1/C(=C\C(=O)COC(=O)c2ccc([N+](=O)[O-])o2)C(C)(C)c2ccccc21	inconclusive [inhibitor, single point]
Cn1c(=O)[nH]c(=O)c2c1ncn2CCCc1ccccc1	inconclusive [inhibitor, single point]
CCSc1nc2c(cnn2-c2ccccc2)c(=O)n1N	inconclusive [inhibitor, single point]
COc1ccc([N+](=O)[O-])cc1NC(=O)Nc1ccc(OC)c(OC)c1	inconclusive [inhibitor, single point]
CCCN1C(=O)/C(=C/c2ccc(C)o2)NC1=S	inconclusive [inhibitor, partial curve]
COc1ccc(OC)c(S(=O)(=O)NC(N)=NCCc2ccccc2OC)c1	inconclusive [inhibitor, partial curve]
O=C(NCCc1nnc2ccc(NCC3CCCO3)nn12)c1ccccc1 (stereo unspecified)	inconclusive [inhibitor, single point]
COC(=O)c1cc(C(=O)c2cc(F)ccc2O)cn2c(=O)c3c(C)c(C)sc3nc12	inconclusive [inhibitor, partial curve]
COc1ccccc1N1CCN(/N=C/C=C\c2ccccc2[N+](=O)[O-])CC1	active: 25.1 µM
COc1ccc(OC)c(-c2csc(NC(=O)Cc3cccs3)n2)c1	inconclusive [inhibitor, single point]
O=[N+]([O-])c1ccccc1NCc1ccccc1Cl	inconclusive [inhibitor, single point]
O=C(CCS(=O)(=O)c1ccc(Cl)cc1)Nc1ccc(N2CCOCC2)cc1	inactive
C(=N\N1CCN(c2ccccn2)CC1)/c1cccc2ccccc12	inconclusive [inhibitor, single point]
O=C(O)CCCCCCCCCCP(=O)(c1ccccc1)c1ccccc1	inactive
CN=c1scc(-c2ccccc2F)n1/N=C/c1ccc(O)c(O)c1O	active: 28.2 µM

SMILES	Potency
Cc1ccc(NC(=O)Cc2ccc([N+](=O)[O-])cc2)c(Br)c1	inactive
O=C(COC(=O)c1cc[n+]([O-])cc1)Nc1ccccc1Sc1ccccc1	inconclusive [activator, full curve, poor fit]
CCOc1cccc2sc(N(CCN(CC)CC)C(=O)c3cccc([N+](=O)[O-])c3)nc12	inconclusive [inhibitor, single point]
c1ccc2cc(OCc3nc4ccccc4[nH]3)ccc2c1	inconclusive [inhibitor, single point]
O=C(N/N=C/c1cc(Br)cc(Br)c1O)c1cccc(S(=O)(=O)N2CCOCC2)c1	inconclusive [inhibitor, single point]
COc1ccc(-c2nc3c(Br)c(N)c(Br)cc3o2)cc1	inconclusive [inhibitor, single point]
COC(=O)C1=C(C)N(C(C)c2ccccc2)C(=O)/C1=C\c1ccco1 (stereo unspecified)	inconclusive [inhibitor, partial curve]
Cc1ccc(O)c(N=Nc2ccc(S(=O)(=O)N3CCCC3)cc2)c1	inconclusive [inhibitor, single point]
CCC(C)(C)C(=O)OC1CC(C)C=C2C=CC(C)C(CCC3CC(O)CC(=O)O3)C21 (stereo unspecified)	inactive
N#Cc1ccc(Oc2ccc(-c3nc4ccccc4nc3-c3ccccc3)cc2)cc1C#N	inactive
COCCCNc1ccc([N+](=O)[O-])cc1C(=O)Nc1cccc(C)n1	inconclusive [inhibitor, single point]
CCOc1cccc(/C=C2\NC(=S)N(c3ccccc3)C2=O)c1O	inconclusive [inhibitor, single point]
CC1(OC(=O)C2CCCC2)C(=O)C=C2C=C(c3ccsc3)N(Cc3ccco3)C=C2C1=O (stereo unspecified)	inconclusive [inhibitor, partial curve]
Nc1sc(-c2ccccc2)n[n+]1Cc1cccc2cccnc12	inconclusive [inhibitor, single point]
Nc1nc(Br)c2ccccc2c1-c1ccccc1	inconclusive [activator, partial curve]
O=C1/C(=C/c2ccco2)SC(=S)N1CC1CCCO1 (stereo unspecified)	inconclusive [inhibitor, single point]
CNCC(O)Cn1c2c(c3ccccc31)CCCC2 (stereo unspecified)	inconclusive [inhibitor, single point]
CN1C(C(=O)Nc2ccccn2)=C(O)c2ccccc2S1(=O)=O	inconclusive [inhibitor, single point]
CCc1c(C)sc(NC(=S)N2CCN(S(C)(=O)=O)CC2)c1C(=O)OC	active: 28.2 µM
COC(=O)c1ccccc1NC(=S)N(Cc1ccc2c(c1)OCO2)Cc1cc2ccc(OC)cc2[nH]c1=O	inactive
